Reference: patent US20250361279A1 (Hoffmann-La Roche, published 2025)

T1: IL-7 receptor (IL-7R alpha chain and common gamma chain) on human T cells (human, UniProt P16871 21-459; P31785 23-369)
T1 sequence (looked up) 1: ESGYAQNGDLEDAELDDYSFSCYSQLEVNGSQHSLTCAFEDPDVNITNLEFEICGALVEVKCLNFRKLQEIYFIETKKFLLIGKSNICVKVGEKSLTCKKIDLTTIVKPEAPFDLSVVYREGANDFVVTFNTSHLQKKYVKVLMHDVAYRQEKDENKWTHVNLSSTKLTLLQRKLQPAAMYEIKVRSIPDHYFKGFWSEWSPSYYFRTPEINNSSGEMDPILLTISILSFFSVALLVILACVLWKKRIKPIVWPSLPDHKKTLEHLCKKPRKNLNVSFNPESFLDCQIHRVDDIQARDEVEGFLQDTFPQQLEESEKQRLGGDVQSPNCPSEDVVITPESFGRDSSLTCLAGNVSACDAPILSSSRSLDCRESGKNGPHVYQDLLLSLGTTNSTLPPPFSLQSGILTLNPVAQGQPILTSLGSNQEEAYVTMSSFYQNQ
T1 sequence (looked up) 2: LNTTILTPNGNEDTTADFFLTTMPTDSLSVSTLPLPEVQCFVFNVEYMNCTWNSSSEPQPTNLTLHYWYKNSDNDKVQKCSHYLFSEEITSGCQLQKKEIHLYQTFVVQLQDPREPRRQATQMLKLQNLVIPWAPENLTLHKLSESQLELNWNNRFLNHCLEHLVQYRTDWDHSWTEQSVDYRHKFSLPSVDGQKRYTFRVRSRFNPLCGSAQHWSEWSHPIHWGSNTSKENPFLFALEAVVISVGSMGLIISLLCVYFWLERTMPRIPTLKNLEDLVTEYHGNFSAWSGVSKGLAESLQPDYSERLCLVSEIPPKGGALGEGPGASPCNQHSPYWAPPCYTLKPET

B1: P1AH6018 (new PD1-IL7v, fully glycosylated; IL7 K81Q, G85E; (G2SG2)3 linker) (other)
light: DIVMTQSPDSLAVSLGERATINCKASESVDTSDNSFIHWYQQKPGQSPKLLIYRSSTLESGVPDRFSGSGSGTDFTLTISSLQAEDVAVYYCQQNYDVPWTFGQGTKVEIKRTVAAPSVFIFPPSDEQLKSGTASVVCLLNNFYPREAKVQWKVDNALQSGNSQESVTEQDSKDSTYSLSSTLTLSKADYEKHKVYACEVTHQGLSSPVTKSFNRGEC
heavy 1: EVQLLESGGGLVQPGGSLRLSCAASGFSFSSYTMSWVRQAPGKGLEWVATISGGGRDIYYPDSVKGRFTISRDNSKNTLYLQMNSLRAEDTAVYYCVLLTGRVYFALDSWGQGTLVTVSSASTKGPSVFPLAPSSKSTSGGTAALGCLVKDYFPEPVTVSWNSGALTSGVHTFPAVLQSSGLYSLSSVVTVPSSSLGTQTYICNVNHKPSNTKVDKKVEPKSCDKTHTCPPCPAPEAAGGPSVFLFPPKPKDTLMISRTPEVTCVVVDVSHEDPEVKFNWYVDGVEVHNAKTKPREEQYNSTYRVVSVLTVLHQDWLNGKEYKCKVSNKALGAPIEKTISKAKGQPREPQVCTLPPSRDELTKNQVSLSCAVKGFYPSDIAVEWESNGQPENNYKTTPPVLDSDGSFFLVSKLTVDKSRWQQGNVFSCSVMHEALHNHYTQKSLSLSPG
heavy 2: EVQLLESGGGLVQPGGSLRLSCAASGFSFSSYTMSWVRQAPGKGLEWVATISGGGRDIYYPDSVKGRFTISRDNSKNTLYLQMNSLRAEDTAVYYCVLLTGRVYFALDSWGQGTLVTVSSASTKGPSVFPLAPSSKSTSGGTAALGCLVKDYFPEPVTVSWNSGALTSGVHTFPAVLQSSGLYSLSSVVTVPSSSLGTQTYICNVNHKPSNTKVDKKV[sequence of human IgG1 Fc with changes omitted]GGSGGGGSGGGGSGGDCDIEGKDGKQYESVLMVSIDQLLDSMKEIGSNCLNNEFNFFKRHICDANKEGMFLFRAARKLRQFLKMNSTGDFDLHLLQVSEETTILLNCTGQVKGRKPAALGEAQPTKSLEENKSLKEQKKLNDLCFLKRLLQEIKTCWNKILMGTKEH
B2: P1AH6019 (new PD1-IL7v, fully glycosylated; IL7 K81E, G85Q; (G2SG2)3 linker) (other)
light: B1 light
heavy 1: B1 heavy 1
heavy 2: EVQLLESGGGLVQPGGSLRLSCAASGFSFSSYTMSWVRQAPGKGLEWVATISGGGRDIYYPDSVKGRFTISRDNSKNTLYLQMNSLRAEDTAVYYCVLLTGRVYFALDSWGQGTLVTVSSASTKGPSVFPLAPSSKSTSGGTAALGCLVKDYFPEPVTVSWNSGALTSGVHTFPAVLQSSGLYSLSSVVTVPSSSLGTQTYICNVNHKPSNTKVDKKV[sequence of human IgG1 Fc with changes omitted]GGSGGGGSGGGGSGGDCDIEGKDGKQYESVLMVSIDQLLDSMKEIGSNCLNNEFNFFKRHICDANKEGMFLFRAARKLRQFLKMNSTGDFDLHLLEVSEQTTILLNCTGQVKGRKPAALGEAQPTKSLEENKSLKEQKKLNDLCFLKRLLQEIKTCWNKILMGTKEH
B3: P1AH6025 (new PD1-IL7v, fully glycosylated; IL7 L77K, G85E; (G2SG2)3 linker) (other)
light: B1 light
heavy 1: B1 heavy 1
heavy 2: EVQLLESGGGLVQPGGSLRLSCAASGFSFSSYTMSWVRQAPGKGLEWVATISGGGRDIYYPDSVKGRFTISRDNSKNTLYLQMNSLRAEDTAVYYCVLLTGRVYFALDSWGQGTLVTVSSASTKGPSVFPLAPSSKSTSGGTAALGCLVKDYFPEPVTVSWNSGALTSGVHTFPAVLQSSGLYSLSSVVTVPSSSLGTQTYICNVNHKPSNTKVDKKV[sequence of human IgG1 Fc with changes omitted]GGSGGGGSGGGGSGGDCDIEGKDGKQYESVLMVSIDQLLDSMKEIGSNCLNNEFNFFKRHICDANKEGMFLFRAARKLRQFLKMNSTGDFDKHLLKVSEETTILLNCTGQVKGRKPAALGEAQPTKSLEENKSLKEQKKLNDLCFLKRLLQEIKTCWNKILMGTKEH
B4: P1AH6002 (new PD1-IL7v, fully glycosylated; IL7 V15A, K81A; (G2SG2)3 linker) (other)
light: B1 light
heavy 1: B1 heavy 1
heavy 2: EVQLLESGGGLVQPGGSLRLSCAASGFSFSSYTMSWVRQAPGKGLEWVATISGGGRDIYYPDSVKGRFTISRDNSKNTLYLQMNSLRAEDTAVYYCVLLTGRVYFALDSWGQGTLVTVSSASTKGPSVFPLAPSSKSTSGGTAALGCLVKDYFPEPVTVSWNSGALTSGVHTFPAVLQSSGLYSLSSVVTVPSSSLGTQTYICNVNHKPSNTKVDKKV[sequence of human IgG1 Fc with changes omitted]GGSGGGGSGGGGSGGDCDIEGKDGKQYESALMVSIDQLLDSMKEIGSNCLNNEFNFFKRHICDANKEGMFLFRAARKLRQFLKMNSTGDFDLHLLAVSEGTTILLNCTGQVKGRKPAALGEAQPTKSLEENKSLKEQKKLNDLCFLKRLLQEIKTCWNKILMGTKEH
B5: P1AH6004 (new PD1-IL7v, fully glycosylated; IL7 V18K, G85K; (G2SG2)3 linker) (other)
light: B1 light
heavy 1: B1 heavy 1
heavy 2: EVQLLESGGGLVQPGGSLRLSCAASGFSFSSYTMSWVRQAPGKGLEWVATISGGGRDIYYPDSVKGRFTISRDNSKNTLYLQMNSLRAEDTAVYYCVLLTGRVYFALDSWGQGTLVTVSSASTKGPSVFPLAPSSKSTSGGTAALGCLVKDYFPEPVTVSWNSGALTSGVHTFPAVLQSSGLYSLSSVVTVPSSSLGTQTYICNVNHKPSNTKVDKKV[sequence of human IgG1 Fc with changes omitted]GGSGGGGSGGGGSGGDCDIEGKDGKQYESVLMKSIDQLLDSMKEIGSNCLNNEFNFFKRHICDANKEGMFLFRAARKLRQFLKMNSTGDFDLHLLKVSEKTTILLNCTGQVKGRKPAALGEAQPTKSLEENKSLKEQKKLNDLCFLKRLLQEIKTCWNKILMGTKEH

Target: T1, IL-7 receptor (IL-7R alpha chain and …)
Assay: cell-based or functional assay

Row | Binder | Percentage of rescued Granzyme B production by Tconv (Treg suppression assay, 6 nM) | Percentage of suppressed Granzyme B production by Tconv (Treg suppression assay, 6 nM)
1 | B1 | 53.3% | 46.7%
2 | B2 | 57.7% | 42.3%
3 | B3 | 31.2% | 68.8%
4 | B4 | 46.8% | 53.2%
5 | B5 | 20.1% | 79.9%

Target: T2, human PD-1 on activated CD4 T cells (human, UniProt Q15116 25-288)
Assay: cell-based or functional assay

Row | Binder | Cis-delivery: fold increase in EC50, EC50 [with PD1bl]/EC50 [no PD1bl] | Delta AUC (PD1+ vs PD1bl.)
6 | B4 | 31.7 fold | 40.4
7 | B5 | 0.1 fold | 10.6

Target: T1, IL-7 receptor (IL-7R alpha chain and …)
Assay: cell-based or functional assay
Remark: another data set of the same source

Row | Binder | Potency reduction to PD1-IL7wt: EC50 (PD1+)/EC50 (PD1-IL7wt) | STAT-5P AUC, PD1+ CD4 T cells | STAT-5P AUC, PD1-blocked CD4 T cells
8 | B4 | 52.6 fold | 57.1 | 16.7
9 | B5 | 80.2 fold | 14.1 | 3.4

Target: T2, human PD-1 on activated CD4 T cells
Assay: cell-based or functional assay
Remark: another data set of the same source

Row | Binder | Cis-delivery: fold increase in EC50, EC50 [with PD1bl]/EC50 [no PD1bl] | Delta AUC (PD1+ vs PD1bl.)
10 | B1 | 36.4 fold | 35.5
11 | B2 | 35.1 fold | 36.5
12 | B3 | 0.01 fold | 15.1

Target: T1, IL-7 receptor (IL-7R alpha chain and …)
Assay: cell-based or functional assay
Remark: another data set of the same source

Row | Binder | Potency reduction to PD1-IL7wt: EC50 (PD1+)/EC50 (PD1-IL7wt) | STAT-5P AUC, PD1+ CD4 T cells | STAT-5P AUC, PD1-blocked CD4 T cells
13 | B1 | 71 fold | 53 | 17.6
14 | B2 | 46 fold | 58 | 21.5
15 | B3 | 77.8 fold | 19.9 | 4.8
